The structures appear in SMILES notation. The whole screen tested about 45,000 compounds, of which about 65 (0.1%) were called active. The call rests on the fitted dose curve; in most records, active means well fitted activation curve with a large enough effect; inconclusive means small, poorly fitted or top-dose-only effect; inactive means no such curve, though single readings can be large or run the other way. The list shows a part of the results.

UniProt P54803, sequence (P54803 whole entry, looked up): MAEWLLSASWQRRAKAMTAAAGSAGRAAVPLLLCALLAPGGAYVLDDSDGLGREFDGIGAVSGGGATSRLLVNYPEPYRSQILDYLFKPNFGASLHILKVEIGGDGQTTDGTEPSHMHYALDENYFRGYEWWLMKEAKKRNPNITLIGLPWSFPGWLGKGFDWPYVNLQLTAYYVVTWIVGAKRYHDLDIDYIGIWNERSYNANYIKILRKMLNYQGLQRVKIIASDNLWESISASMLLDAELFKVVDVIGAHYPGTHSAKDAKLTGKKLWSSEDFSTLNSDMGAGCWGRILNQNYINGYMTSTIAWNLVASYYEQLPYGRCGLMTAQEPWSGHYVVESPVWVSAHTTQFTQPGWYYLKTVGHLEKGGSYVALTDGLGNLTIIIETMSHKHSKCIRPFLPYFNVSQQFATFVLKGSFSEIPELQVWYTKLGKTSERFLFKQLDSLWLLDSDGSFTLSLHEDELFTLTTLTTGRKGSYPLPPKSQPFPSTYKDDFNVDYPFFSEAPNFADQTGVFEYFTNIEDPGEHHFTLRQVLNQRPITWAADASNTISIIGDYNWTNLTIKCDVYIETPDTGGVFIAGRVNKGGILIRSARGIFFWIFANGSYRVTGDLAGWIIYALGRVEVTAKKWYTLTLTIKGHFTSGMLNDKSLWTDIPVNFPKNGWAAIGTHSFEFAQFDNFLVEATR

The target of the assay is Galactocerebrosidase (Homo sapiens) (UniProt P54803). Description: A Novel Cell-Based Assay to Identify Small Molecules for B -Galactocerebrosidase. Further: 0% is about no effect; nearly all actives have a fitted effect of over 65% in size. Conditions: 145M-Twi-hGALC-G270D cells (Twitcher mouse brain line with human GALC G270D), HMU-beta-Gal fluorescence, 48 h; series mostly up to 57.5 µM; activation: at the top concentration. The procedure, abridged:
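Brain-derived Twitcher mouse 145M-Twi cells stably expressing human GALC-G270D or wild-type GALC, treated live, then residual GALC activity read by fluorescence of HMU-b-Gal substrate (0.1 mM final) in citrate-phosphate buffer pH 5.2 with sodium taurocholate. Signal increase indicates enhancement.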
With `CCCCN(CC)C(=O)C1CCCN(c2ncnc3onc(C)c23)C1` (centres undefined), the “activation” value is inactive: -16.4%.
Next, `CCN1CCN(C(c2ccc(SC)cc2)c2c(O)cc(C)n(CCOC)c2=O)CC1` (centres undefined): inactive: -30.9%; `COc1cc(C(=O)NCC(c2ccc(Cl)cc2)N2CCOCC2)cc(OC)c1OC` (centres undefined): inactive: -5.66%.
For `CCOC(=O)c1c(C)[nH]c(C)c1S(=O)(=O)NCC(=O)NCc1cccc(C)c1`, the “activation” value was inactive: -12.1%.
The figure for `O=c1cc(-c2ccc(F)cc2)nc(SCc2nc(-c3ccc(Cl)cc3)no2)[nH]1` is inactive: -4.25%; for `CCOC(=O)c1ccc(CN(Cc2ccc(Br)cc2)S(=O)(=O)c2cccc(Cl)c2C)cc1` it is inactive: -14.3%; for `CC(=O)c1ccc(NC(=O)CSc2nc(=O)n(Cc3ccncc3)c3c2CCC3)cc1` it is inactive: -7.61%.
The figure for `Cc1ccc(N2CCN(C(=O)c3cn(C)c4ccc(S(=O)(=O)N(C)C)cc4c3=O)CC2C)cc1` (centres undefined) is inactive: 4.56%; for `O=C(Cn1c(=O)nc(-c2ccccc2)c2ccccc21)NCc1ccccc1Cl` it is inactive: -3.68%; for `CCS(=O)(=O)c1ncc(N(Cc2ccco2)Cc2ccccc2F)c(C(=O)Nc2cccc(Cl)c2)n1` it is inactive: -3.27%.
For `CCOC(=O)CC(NC(=O)Cn1nnc(-c2ccccc2F)n1)c1ccccc1Cl` (centres undefined), the “activation” value was inactive: -15.8%.
The figure for `CCc1ccc(C2C(C(=O)Nc3ccccc3C)=C(C)Nc3nc(SCc4cccc(OC)c4)nn32)cc1` (centres undefined) is inactive: -8.85%.
As to `O=C(CN1N=C(c2ccc(Cl)cc2)CCC1=O)NCCc1ccccc1`, the “activation” value was inactive: -13.9%.
Next, `CC(C)(Oc1ccc(Br)cc1)C(=O)Nc1cc(-c2nc3ccccc3[nH]2)ccc1Cl`: inactive: -8.77%.
Next, `CCOc1ccc(NC(=O)c2oc3ccccc3c2NC(=O)c2ccc(OC)cc2OC)cc1`: inactive: -6.4%; `COc1ccccc1CNC(=O)CN1N=C(c2ccccc2)CCC1=O`: inactive: -1.22%; `Cc1ccc(NC(=O)Cn2nc(Cc3ccncc3)c3ccccc3c2=O)c(Cl)c1`: inactive: 4.11%.
For the compound `CCc1c(C)nc2nncn2c1NCc1ccc(Cl)cc1`, the “activation” value is inactive: -2.67%.
Regarding `CNCc1ccccc1`, the “activation” value was inactive: -21.8%.
`Fc1ccccc1N1CCN(c2nccn3nc(-c4ccc(Br)cc4)cc23)CC1`: the “activation” value was inactive: -9.49%.
The figure for `COc1ccc(CNC(=O)CS(=O)Cc2nc(-c3cccc(C)c3)oc2C)cc1` (centres undefined) is inactive: -8.75%; for `COc1cc(CNCCSc2nnnn2C)cc(Cl)c1OCc1ccccc1` it is inactive: -4.37%; for `Cc1nc(SCCOc2ccccc2F)[nH]c(=O)c1Cc1ccccc1` it is inactive: -4.17%.
For `Cc1ccccc1NC(=O)c1oc2c(c1C)-c1nn(Cc3cccc(Cl)c3)cc1CC2`, the “activation” value is inactive: -16.9%.
Turning to `Cc1ccc(S(=O)(=O)NCC2CCC(C(=O)NCCCOC(C)C)CC2)cc1` (centres undefined), the “activation” value is inactive: -22.2%.
Next, `CCCCNc1nc2ccccc2c2nc(-c3ccccc3)nn12`: inactive: 1.36%.
The figure for `CCCCN(CC)CCNC(=O)c1cc2c(=O)n(CC)c3ccccc3c2s1` is inactive: 5.28%; for `Oc1ccc(NCc2ccccc2OCc2ccc(Cl)cc2)cc1` it is inactive: -16.6%.
Next, `CCOC(=O)c1c(NC(=O)C2c3ccccc3Oc3ccccc32)sc(C)c1CC`: inactive: -10.7%.
Regarding `COc1cc(Nc2nc3c(S(=O)(=O)c4ccc(C)c(C)c4)nnn3c3ccsc23)cc(OC)c1`, the “activation” value was inactive: -12.1%.
Next, `O=C(NCc1ccc(F)cc1)C1(c2cccs2)CCOCC1`: inactive: -1.9%; `Cc1ccc(OCC(=O)Nc2nnc(S(=O)(=O)N3CCCCCC3)s2)cc1`: inactive: -14.7%; `COC(=O)c1ccccc1NC(=O)N1CCC(N2CCN(Cc3ccc(F)cc3)C(=O)C2=O)CC1`: inactive: -9.98%.
Next, `CC(C)(C)C1CCc2nc(NC(=O)Cc3ccccc3)sc2C1` (centres undefined): inactive: -7.92%.
Next, `CCn1c(=O)cc(OCC(=O)N(C)c2cc(Cl)ccc2C)c2ccccc21`: inactive: -14.1%; `COc1cc(O)c(C(=O)c2ccccc2)cc1S(=O)(=O)O`: inactive: -15.4%.
For `CCCCC(CC)COC(=O)c1ccc(N(C)C)cc1` (centres undefined), the “activation” value is inactive: -16.3%.
Next, `O=C1CN(C(=O)COc2ccc(Cl)cc2Cl)C(c2ccccc2)c2cc(F)ccc2N1` (centres undefined): inactive: -6.13%.
Take `CN(C)CCNC(=O)c1ccc(-c2nn(C)c(=O)c3ccccc23)cc1`: the “activation” value is inactive: 4.06%.
The figure for `CSc1ccc(-c2nc3cccc(C)n3c2Nc2ccc(Cl)cc2)cc1` is inactive: -2.58%.
Next, `COc1ccccc1N1C(=O)N(CC(=O)C(C)(C)C)c2ccccc2S1(=O)=O`: inactive: -11.1%; `CCOc1ccccc1CNC(=O)CCCn1ccc2cc(S(=O)(=O)N3CCCC3)ccc21`: inactive: -8.11%; `O=C(O)c1ccc(NC(=O)c2cc(S(=O)(=O)N3CCCCC3)c(Cl)cc2Cl)cc1`: inactive: -14.8%.
For the compound `Cc1cccc(C(=O)NNc2ncnc3c2cnn3-c2ccc(C)cc2C)c1`, the “activation” value is inactive: -16.3%.
Next, `CC(C)c1ccc(S(=O)(=O)c2cnc(SCC(=O)Nc3ccc4c(c3)OCCO4)[nH]c2=O)cc1`: inactive: -4.29%.
With `Cc1ccc(Cn2cnc3nc4c(cc3c2=O)CC(C)CC4)cc1` (centres undefined), the “activation” value is inactive: -10.9%.
Next, `COc1cccc(C(=O)Nc2nnc(S(=O)(=O)N3CCCC3)s2)c1`: inactive: -3.06%; `CCOc1ccc(CCNC(=O)c2nn(C)c3c2CSc2ccccc2-3)cc1`: inactive: 2.83%; `O=C(O)Cc1ccccc1Oc1ccc(Cl)cc1Cl`: inactive: -14.9%.
